Results published in patent publication US11964052B2, “Lipid compounds and lipid nanoparticle compositions” (SUZHOU ABOGEN BIOSCIENCES CO., LTD., priority 2021, dated 2024).
At least one read-out could not be matched to a standard name with certainty. Some entries repeat one wording, which the source may state once for all of them.

Tested on: human erythropoietin (hEPO) mRNA
Experiment: Animal study: hEPO mRNA LNPs given to mice by tail vein injection, serum hEPO by ELISA kit, expression relative to MC3 LNPs
Type: in vivo
Settings: hEPO mRNA LNP, 0.5 mg/kg, female ICR mice, blood sampled e.g. 6 hours post administration

SMILES | Expression over MC3
CCCCCCCCCCCCOCC(CN(CCO)C1CCC1)OCCCCCCCCCCCC (stereo not drawn) [Compound 1] | D (<0.1)
CCCCCCCCCCCCOCC(CN(CCO)C1CCC1)OC(=O)CCCCCCCCCCC (stereo not drawn) [Compound 2] | D (<0.1)
CCCCCCCCCCCCOCC(CN(CCO)C1CCC1)OC(=O)CCCCC (stereo not drawn) [Compound 3] | D (<0.1)
CCCCCCCCCCCCOCC(CN(CCO)C1CCC1)OCCCCCC(=O)OCC(CCCCCC)CCCCCCCC (stereo not drawn) [Compound 4] | D (<0.1)
CCCCCCCCCCCCOCC(CN(C)CCN(CCO)C1CCCC1)OCCCCCC (stereo not drawn) [Compound 5] | D (<0.1)
CCCCCCCCCCCCOCC(CN(C)CCN(CCO)C1CCCCC1)OCCCCCCCCCCCC (stereo not drawn) [Compound 6] | D (<0.1)
CCCCCCCCCCCCOCC(O)CN(CCCCCC(=O)OCC(CCCCCC)CCCCCCCC)CCN(C)C (stereo not drawn) [Compound 7] | D (<0.1)
CCCCCCCCCCCCOCC(O)CN(CCCCCC(=O)OCC(CCCCCC)CCCCCCCC)CCN1CCCCC1 (stereo not drawn) [Compound 8] | D (<0.1)
CCCCCCCCCCCCOCC(CN(CCCCCC(=O)OCC(CCCCCC)CCCCCCCC)CCN1CCCCC1)OC(C)=O (stereo not drawn) [Compound 9] | C (≥0.1 and <1)
CCCCCCCCCCCCOCC(O)CN(CCCCCC(=O)OCC(CCCCCC)CCCCCCCC)CCN1CCCC1 (stereo not drawn) [Compound 10] | D (<0.1)
CCCCCCCCCCCCOCC(O)CN(CCCCCC(=O)OCC(CCCCCC)CCCCCCCC)CCN(CC)CC (stereo not drawn) [Compound 11] | D (<0.1)
CCCCCCCCCCCCOCC(O)CN(CCO)CCCCCC(=O)OCC(CCCCCC)CCCCCCCC (stereo not drawn) [Compound 13] | D (<0.1)
CCCCCCCCCCCCOCC(CN(CCO)CCCCCC(=O)OCC(CCCCCC)CCCCCCCC)OC(=O)CCCCC (stereo not drawn) [Compound 14] | D (<0.1)
CCCCCCCCCCCCOCC(CN(CCCCCC(=O)OCC(CCCCCC)CCCCCCCC)CCN1CCCCC1)OC(=O)CCCCC (stereo not drawn) [Compound 15] | C (≥0.1 and <1)
CCCCCCCCCCCCOCC(CN(CCCCCC)CCN(CCO)C1CCC1)OCCCCCCCCCCCC (stereo not drawn) [Compound 16] | C (≥0.1 and <1)
CCCCCCCCCCCCOCC(CN(CCCCCCCCCCCC)CCN(CCO)C1CCC1)OCCCCCCCCCCCC (stereo not drawn) [Compound 17] | C (≥0.1 and <1)
CCCCCCCCCCCCOCC(CN(CCO)CCCCCC(=O)OCC(CCCCCC)CCCCCCCC)OC(C)=O (stereo not drawn) [Compound 18] | D (<0.1)
CCCCCCCCCCCCOCC(CN(CCO)CCCCCC(=O)OCC(CCCCCC)CCCCCCCC)OC(=O)CC (stereo not drawn) [Compound 19] | D (<0.1)
CCCCCCCCCCCCOCC(CN(CCCCCC(=O)OCC(CCCCCC)CCCCCCCC)CCN(CCO)C1CCC1)OC(C)=O (stereo not drawn) [Compound 20] | D (<0.1)
CCCCCCCCCCCCOCC(CN(CCCCCC(=O)OCC(CCCCCC)CCCCCCCC)CCN(CCO)C1CC1)OCCCCCC (stereo not drawn) [Compound 22] | D (<0.1)
CCCCCCCCCCCCOCC(CN(CCCCCC(=O)OCC(CCCCCC)CCCCCCCC)CCN(CCO)C1CC1)OCCCCCCCCCCCC (stereo not drawn) [Compound 27] | D (<0.1)

SMILES | Expression over MC3
CCCCCCCCC(CCCCCC)CC(=O)OCC(CN(CCO)C1CCC1)OC(=O)CC(CCCCCC)CCCCCCCC (stereo not drawn) [Compound 32] | D (<0.1)
CCCCCCCCCCCCOCC(CN(CCCCCC(=O)OCC(CCCCCC)CCCCCCCC)CCN(CCO)C1CCC1)OCCCCCCCC (stereo not drawn) [Compound 33] | C (≥0.1 and <1)
CCCCCCCCCCCCOCC(CN(C)CCN(CCO)C1CCC1)OC(=O)CCCC (stereo not drawn) [Compound 40] | D (<0.1)
CCCCCCCCCCCCOCC(CN(C)CCO)OC(=O)CCCCCCCCCCC (stereo not drawn) [Compound 41] | D (<0.1)
CCCCCCCCCCCCOCC(CN(C)CCN(CCO)C1CCC1)OC(=O)CCCCCCCCCCC (stereo not drawn) [Compound 42] | D (<0.1)
CCCCCCCCCOC(=O)CCOCC(CN(C)CCN(CCO)C1CCC1)OCCC(=O)OCCCCCCCCC (stereo not drawn) [Compound 43] | D (<0.1)
CCCCCCCCCCCCOCC(CN(C)CCN(CCO)C1CCC1)OC(=O)CCCCC (stereo not drawn) [Compound 44] | D (<0.1)
CCCCCCCCCCCCCCCCCCOCC(CN(CCCCCC(=O)OCCCCCCCCCC)CCN(CCO)C1CCC1)OCCCCCC (stereo not drawn) [Compound 46] | C (≥0.1 and <1)
CCCCCCCCCCCCCCOC(COCCCCCCCCCCCC)CN(CCCCCC(=O)OCCCCCCCCCC)CCN(CCO)C1CCC1 (stereo not drawn) [Compound 47] | C (≥0.1 and <1)
CCCCCCCCCCCCOCC(CN(CCCCCC(=O)OCCCCCCCCCC)CCN(CCO)C1CCC1)OCCCCCCCC (stereo not drawn) [Compound 48] | C (≥0.1 and <1)
CCCCCCCCCCCCOCC(CN(CCCCCC(=O)OCCCCCCCCCC)CCN(CCO)C1CCC1)OCCCCCC (stereo not drawn) [Compound 49] | A (≥2)
CCCCCCCCC(CCCCCCCC)CNC(=O)CCOCC(CN(C)CCO)OCCC(=O)NCC(CCCCCCCC)CCCCCCCC (stereo not drawn) [Compound 50] | C (≥0.1 and <1)
CCCCCCCCC(CCCCCCCC)CNC(=O)CCOCC(CN(C)CCN(CCO)C1CCC1)OCCC(=O)NCC(CCCCCCCC)CCCCCCCC (stereo not drawn) [Compound 51] | C (≥0.1 and <1)
CCCCCCCCCCCCCCCCOCC(CN(CCCCCC(=O)OCCCCCCCCCC)CCN(CCO)C1CCC1)OCCCCCC (stereo not drawn) [Compound 53] | C (≥0.1 and <1)
CCCCCCCCC(CCCCCCCC)COC(=O)CCOCC(CN(C)CCN(CCO)C1CCC1)OCCC(=O)OCC(CCCCCCCC)CCCCCCCC (stereo not drawn) [Compound 55] | C (≥0.1 and <1)
CCCCCCCCC(CCCCCCCC)CC(=O)OCC(CCCCN(CCO)C1CCC1)COC(=O)CC(CCCCCCCC)CCCCCCCC [Compound 56] | B (≥1 and <2)
CCCCCCC(CCCCCC)COC(=O)CCCCCN(CCN1CCC(O)C1)CC(COC(=O)CCCCC)OC(=O)CCCCC (stereo not drawn) [Compound 59] | D (<0.1)
CCCCCCCCC(CCCCCCCC)CC(=O)OCC(CCCCN(CCO)C1CCC1)COC(=O)CCCCC (stereo not drawn) [Compound 60] | C (≥0.1 and <1)
CCCCCCCCC(CCCCCCCC)CNC(=O)CCOC(COCCC(=O)OCC(CCCCCCCC)CCCCCCCC)CN(C)CCN(CCO)C1CCC1 (stereo not drawn) [Compound 61] | C (≥0.1 and <1)
CCCCCCCCCCCC(=O)OCC(CN(CCCCCC(=O)OCC(CCCCCC)CCCCCC)CCN1CCC(O)C1)OC(=O)CCCCC (stereo not drawn) [Compound 62] | D (<0.1)
CCCCCCC(CCCCCC)COC(=O)CCCCCN(CCN1CCC(O)C1)CC(COC(=O)CCCCC)OC(=O)CCCCC (stereo not drawn) [Compound 63] | C (≥0.1 and <1)

SMILES | Expression over MC3
CCCCC/C=C\C/C=C\CCCCCCCC(=O)OCC(CN(C)CCN(CCO)C1CCC1)OC(=O)CCCCCCC/C=C\C/C=C\CCCCC (stereo not drawn) [Compound 64] | D (<0.1)
CCCCCCCCC(CCCCCCCC)CC(=O)OCC(CCCCN(CCN(C)CCO)C1CCC1)COC(=O)CC(CCCCCCCC)CCCCCCCC [Compound 65] | C (≥0.1 and <1)
CCCCCCCCC(CCCCCCCC)CC(=O)OCC(CCCCN(C)CCN(CCO)C1CCC1)COC(=O)CC(CCCCCCCC)CCCCCCCC [Compound 66] | B (≥1 and <2)
CCCCCCCCC(CCCCCCCC)CC(=O)OCC(CCCCN(CC)CCN(CCO)C1CCC1)COC(=O)CC(CCCCCCCC)CCCCCCCC [Compound 67] | D (<0.1)
CCCCCCCCC(CCCCCC)CC(=O)OCC(CCCCN(CCO)C1CCCCC1)COC(=O)CC(CCCCCC)CCCCCCCC (stereo not drawn) [Compound 68] | C (≥0.1 and <1)
CCCCCCCCC(CCCCCC)CC(=O)OCC(CCCCN(CCN(CC)CCO)C1CCC1)COC(=O)CC(CCCCCC)CCCCCCCC (stereo not drawn) [Compound 69] | C (≥0.1 and <1)
CCCCCCCCC(CCCCCCCC)COC(=O)CCOCC(CN(C)CCN(CCO)C1CC1)OCCC(=O)OCC(CCCCCCCC)CCCCCCCC (stereo not drawn) [Compound 70] | A (≥2)
CCCCCCCCC(CCCCCCCC)COC(=O)CCOCC(CN(C)CCN(CCO)C1CCCC1)OCCC(=O)OCC(CCCCCCCC)CCCCCCCC (stereo not drawn) [Compound 71] | B (≥1 and <2)
CCCCCCCCC(CCCCCCCC)COC(=O)CCOCC(CN(C)CCN(CCO)C1CCCCC1)OCCC(=O)OCC(CCCCCCCC)CCCCCCCC (stereo not drawn) [Compound 72] | A (≥2)
CCCCCCCCC(CCCCCCCC)COC(=O)CCOCC(CN(C)CCN(CCO)C1CCCCCC1)OCCC(=O)OCC(CCCCCCCC)CCCCCCCC (stereo not drawn) [Compound 73] | A (≥2)
CCCCCCCCC(CCCCCCCC)COC(=O)CCOCC(CN(C)CCN(CCO)C1CCCCCCC1)OCCC(=O)OCC(CCCCCCCC)CCCCCCCC (stereo not drawn) [Compound 74] | A (≥2)
CCCCCCCCC(CCCCCC)CC(=O)OCC(CCCCN(CC=C(C)C)CCO)COC(=O)CC(CCCCCC)CCCCCCCC (stereo not drawn) [Compound 77] | B (≥1 and <2)
CCCCCCCCC(CCCCCC)CC(=O)OCC(CCCCN(CC=C(C)C)CCN(CCO)C1CCC1)COC(=O)CC(CCCCCC)CCCCCCCC (stereo not drawn) [Compound 78] | C (≥0.1 and <1)
CCCCCCCCC(CCCCCC)CC(=O)OCC(CCCCN(CCN(CCO)C1CCC1)C1CCC1)COC(=O)CC(CCCCCC)CCCCCCCC (stereo not drawn) [Compound 79] | A (≥2)
CCCCCCCCC(CCCCCC)CC(=O)OCC(CCCCN(CCN(CCC)CCO)C1CCC1)COC(=O)CC(CCCCCC)CCCCCCCC (stereo not drawn) [Compound 80] | A (≥2)
CCCCCCCCCCC(=O)OCC(CCCCN(CCO)C1CCC1)COC(=O)CC(CCCCCC)CCCCCCCC (stereo not drawn) [Compound 81] | B (≥1 and <2)
CCCCCCCCCCC(=O)OCC(CCCCN(CCN(CCO)C1CCC1)C1CCC1)COC(=O)CC(CCCCCC)CCCCCCCC (stereo not drawn) [Compound 82] | A (≥2)
CCCCCCCCC(CCCCCC)CC(=O)OCC(CCCCN(CCCC)CCN(CCO)C1CCC1)COC(=O)CC(CCCCCC)CCCCCCCC (stereo not drawn) [Compound 83] | A (≥2)
CCCCCCCCCCC(=O)OCC(CCCCN(CCO)C1CCCC1)COC(=O)CC(CCCCCC)CCCCCCCC (stereo not drawn) [Compound 84] | B (≥1 and <2)
CCCCCCCCCCC(=O)OCC(CCCCN(CCO)C1CCCCC1)COC(=O)CC(CCCCCC)CCCCCCCC (stereo not drawn) [Compound 85] | B (≥1 and <2)
CCCCCCCCCCCCCCCC(=O)OCC(CCCCN(CCO)C1CCCCC1)COC(=O)CC(CCCCCC)CCCCCCCC (stereo not drawn) [Compound 86] | A (≥2)
